Results reported in PubChem BioAssay AID1240 (Sanford-Burnham Center for Chemical Genomics, 2008).
In all, about 50,000 compounds went through this assay and about 800 (1.6%) showed an effect of 50% or more. This is one part of the list.

The compounds below were run against Bcl-2-like protein 10 (Homo sapiens) (UniProt Q9HD36) (assay: TR3 peptide-Bcl-B binding displacers, biochemical primary FP assay, phenotype converters (AID 1240;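 also: 0% = Bcl-B with tracer peptide and DMSO and 100% = tracer peptide lacking Bcl-B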)). Details: GST-Bcl-B / FITC-TR3 peptide fluorescence polarization; stronger effect = higher value; compound at 3.75 mg/L.
Sequence of UniProt Q9HD36 (Q9HD36 whole entry, looked up): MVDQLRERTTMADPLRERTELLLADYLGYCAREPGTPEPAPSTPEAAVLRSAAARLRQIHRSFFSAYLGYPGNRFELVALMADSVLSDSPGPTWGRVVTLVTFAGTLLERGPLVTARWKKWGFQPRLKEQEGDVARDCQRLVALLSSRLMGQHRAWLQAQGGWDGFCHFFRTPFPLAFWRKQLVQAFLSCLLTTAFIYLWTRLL
Compound `Cc1cccc(NC(=O)CSC(N)=O)c1C` has a displacement of -3.9%.
For `CCN(CC)c1ccc(/C=N/Nc2ccccc2[N+](=O)[O-])c(O)c1`, the displacement was -1.7%.
Work on `C=CCC(C(=O)c1ccccc1)C(=O)C(C)(C)OC` (centres undefined) yielded a displacement of 4.9%.
For `O=C(COc1ccc(Br)cc1)Nc1ccc(Cl)cc1Cl`, the displacement was 7.1%.
In the case of `CCOC(=O)Oc1ccc2c(=O)c(-c3ccccc3OC)coc2c1`, the displacement is reported as 14.5%.
`O=C(Cc1ccc(Cl)cc1)Nc1ccc2c(c1)OCCO2` showed a displacement of 0.4%.
Work on `Cc1sc(NN=C2CCCC2)nc1-c1ccccc1` yielded a displacement of -27.4%.
`O=C1NC(=S)S/C1=C/c1cc(Cl)ccc1OCc1ccccc1` gave a displacement of -15.6%.
In the case of `CCN(c1ccccc1)S(=O)(=O)c1ccc(F)cc1`, the displacement is reported as -6.1%.
Work on `Cc1ccc(CO/N=C(\N)c2nonc2N)c(C)c1` yielded a displacement of 10.6%.
Compound `COc1cc(/C=C2\C(=O)N(c3ccc(S(N)(=O)=O)cc3)N=C2C)cc(I)c1O` has a displacement of 11%.
`Cc1ccc(NC(=O)C(c2ccccc2)c2ccccc2)cc1` showed a displacement of -6.3%.
`Cc1occc1C(=O)Nc1sc2c(c1C#N)CCC(C)C2` (centres undefined) showed a displacement of 47.3%.
`COc1cc(/C=N/N2C(=O)CSC2=S)cc(Cl)c1OCCOc1ccc(Br)cc1` gave a displacement of 12.9%.
Work on `COC(=O)C1=C(C)NC2=C(C(=O)CCC2)C1c1cccc(F)c1` (centres undefined) yielded a displacement of 8.9%.
`CC(C)OC(=O)C(C)Sc1n[nH]c(=O)[nH]c1=O` (centres undefined) showed a displacement of 1.6%.
In the case of `CCc1cc(C(=O)N/N=C/c2ccccc2)c2ccccc2n1`, the displacement is reported as -6.7%.
Compound `O=C(COc1ccccc1)Nc1ccc(S(=O)(=O)N2CCOCC2)cc1` has a displacement of 0.4%.
`CC(=O)Nc1ccc(NC(=O)Cc2ccc(Cl)cc2)cc1` was tested, and the displacement was -13%.
Work on `CCCCc1nc2ccccc2c(NC(=O)CN2CCOCC2)c1CCC` yielded a displacement of -9.5%.
`CC(C)Cc1ccc(/C(CCCC(=O)O)=N\O)s1` showed a displacement of 4.5%.
`CCOC(=O)C(CC(C)C)NC(=O)/C(=C\c1ccccc1F)NC(=O)c1ccccc1` (centres undefined) was tested, and the displacement was 14.5%.
Compound `O=C(CSc1nc2ccccc2[nH]1)N/N=C/c1ccccc1Br` has a displacement of 5.9%.
For `C=CCSc1nc2sc3c(c2c(=O)n1-c1ccccc1)CCc1ccccc1-3`, the displacement was -1.3%.
With `COc1ccc(S(=O)(=O)N2CCN(C/C=C/c3ccccc3)CC2)cc1[N+](=O)[O-]` the displacement was -9.7%.
`O=P(c1ccccc1)(c1ccccc1)c1ccccc1O` showed a displacement of 2.7%.
`Cc1cc(N2CCN(C(c3ccccc3)c3ccccc3)CC2)nc2ccccc12` showed a displacement of 10.3%.
In the case of `CC(=O)N1C(=O)/C(=C\C(=O)c2ccc([N+](=O)[O-])cc2)c2ccccc21`, the displacement is reported as 0.8%.
`O=C(Nc1ccc(F)cc1)C(=O)NC1CC1` was tested, and the displacement was -4.4%.
For `CCOC(=O)c1ccccc1NC(=O)CN(c1cccc(Br)c1)S(=O)(=O)c1ccccc1`, the displacement was 6.1%.
`COc1ccc(NC(=O)c2ccc(CSc3ccc(Br)cc3)cc2)cc1` showed a displacement of 8.3%.
Work on `COc1ccc(OCC(=O)Nc2ccc(I)cc2C)cc1` yielded a displacement of 15.2%.
For `CCOc1c(I)cc(/C=C2\C(=O)NC(=O)N(c3ccc(OC)cc3)C2=O)cc1OC`, the displacement was -7.8%.
In the case of `COc1cc(C2NC(=O)NC(C)=C2C(=O)Nc2ccc(Br)cc2)cc(OC)c1OC` (centres undefined), the displacement is reported as -3%.
`O=C(Nc1ccc(Br)cn1)c1cccc(Cl)c1` gave a displacement of -10.4%.
With `COc1ccc(OC)c(NC(=O)c2ccccc2CCc2ccccc2)c1` the displacement was 9.3%.
Work on `O=C1NN(c2ccc(Cl)c(Cl)c2)C(=O)/C1=C/c1cccc(Br)c1` yielded a displacement of -4.7%.
With `Cc1ccc(/C=N\Nc2nc(N3CCCCC3)nc(N3CCCCC3)n2)o1` the displacement was 14.2%.
Compound `CC1(C)C(c2cccs2)=[N+]([O-])C2(CCCCCC2=O)N1O` (centres undefined) has a displacement of -3.2%.
With `O=C(Nc1ccc(Cl)cc1)c1ccccc1[N+](=O)[O-]` the displacement was 2.5%.
In the case of `CCC(=O)Nc1cccc(-c2nc3ccccc3s2)c1C`, the displacement is reported as 2.3%.
In the case of `Cc1ccccc1OCCc1c(C)n[nH]c1C`, the displacement is reported as 11.6%.
`O=c1/c(=C/c2ccccn2)sc2nc3ccccc3n12` showed a displacement of 102%.
`CC(=O)C1=C(O)C(=O)N(CC2CCCO2)C1c1ccc(F)cc1` (centres undefined) gave a displacement of -1%.
With `CCOC(=O)c1ccccc1NC(=O)CN(c1ccc(C)cc1)S(=O)(=O)c1ccc(OCC)cc1` the displacement was 11.4%.
Compound `O=C(O)c1ccc(NC(=O)c2ccc(Cl)c([N+](=O)[O-])c2)cc1` has a displacement of 46.2%.
`COc1c2ccoc2nc2c(OC)c(OCC(O)C(C)(C)O)ccc12` (centres undefined) was tested, and the displacement was -5.7%.
`O=C(Nc1nccs1)c1cccc(N2C(=O)c3ccccc3C2=O)c1` gave a displacement of 21.6%.
In the case of `O=C(O)Cc1ccc(NC(=O)C2CC=CCC2C(=O)O)cc1` (centres undefined), the displacement is reported as -9.8%.
`Cc1sc(NC(=O)c2ccc(F)cc2)nc1C12CC3CC(CC(C3)C1)C2` gave a displacement of 14.7%.
Work on `CC(=O)c1cccc(Nc2ncnc3ccc(Br)cc23)c1` yielded a displacement of 13.7%.
Work on `CCOC(=O)c1ccc(NC(=O)Nc2nc(-c3ccccc3)cs2)cc1` yielded a displacement of 10.9%.
With `O=C(N/N=C/c1ccc(Sc2cccc3cccnc23)o1)c1cccc(F)c1` the displacement was -37.2%.
For `O=C1NN(c2ccc(Cl)c(Cl)c2)C(=O)/C1=C/c1ccc(Cl)c([N+](=O)[O-])c1`, the displacement was 34.5%.
`Cc1ccc2nc(N3CCOCC3)c(C=O)c(=O)n2c1` gave a displacement of -2.4%.
`COc1ccc(NCN2C(=O)CSC2=O)cc1Cl` showed a displacement of 17.8%.
Compound `O=C(O)c1cccc([N+](=O)[O-])c1C(=O)Nc1nc2c(s1)CCCC2` has a displacement of -5.1%.
Compound `CCC(=O)N(CCC1(c2ccc(F)cc2)CCOC(C)(C)C1)Cc1ccc(OC)c(OC)c1` (centres undefined) has a displacement of 8.8%.
`Cc1ccc(N2C(=O)C3C4CC(=O)C(c5ccccc54)C3C2=O)cc1` (centres undefined) gave a displacement of 3.5%.
`COCCNC(=O)COc1ccc2ccccc2c1` was tested, and the displacement was -6%.
For `CC1CN=C(NC(=S)Nc2ccccc2)S1` (centres undefined), the displacement was 6.9%.
Compound `CC(C(=O)N1CCc2ccccc2C1)N1C(=O)c2ccccc2C1=O` (centres undefined) has a displacement of 14.8%.
`CCC(=O)c1ccc(N2CCN(C(=O)c3cccc(F)c3)CC2)c(F)c1` gave a displacement of -15.1%.
With `Cc1cc(C)cc(-n2c(C)cc(/C=C3\NC(=O)NC3=O)c2C)c1` the displacement was 8.7%.
`O=S(=O)(Cc1ccccc1)CC(O)COCc1ccc(Cl)cc1` (centres undefined) showed a displacement of -4.5%.
With `CCOC(=O)C12CC3CC(CC(C3)C1)C2` the displacement was -12.2%.
In the case of `NC(=O)c1cc(NC(=O)C(c2ccccc2)c2ccccc2)ccc1Cl`, the displacement is reported as 11.4%.
Work on `C/C(=N\Nc1nc(-c2ccc(C)cc2)nc2ccccc12)c1ccc(N)cc1` yielded a displacement of 4.2%.
`COc1cc(/C=N/NC(=O)CCN2CCCCC2)ccc1O` gave a displacement of -12.9%.
Work on `Cc1onc(-c2c(Cl)cccc2Cl)c1C(=O)Nc1ccc(Cl)cc1Cl` yielded a displacement of -1.3%.
Work on `O=c1c2cnn(-c3ccccc3)c2nc(-c2ccccc2)n1-c1ccc(Br)cc1` yielded a displacement of 9.3%.
For `O=C(c1ccc([N+](=O)[O-])cc1)N1CCN(C(=O)c2cccs2)CC1`, the displacement was 2.6%.
With `Cc1ccc(C(=O)C[n+]2cccc(C(N)=O)c2)cc1[N+](=O)[O-]` the displacement was 20.9%.
`O=C(N/N=C/c1cc(I)cc(I)c1O)C(O)c1ccccc1` (centres undefined) gave a displacement of 8.2%.
`O=C(Nc1ccccc1)c1ccc2ccccc2n1` gave a displacement of 6.8%.
In the case of `O=C(NCc1ccncc1)/C(=C/c1ccc(F)cc1)NC(=O)c1ccccc1`, the displacement is reported as 5.2%.
In the case of `CCN(CC)c1ccc(NC(=O)/C(=C\c2ccccc2)NC(C)=O)cc1`, the displacement is reported as 0.9%.
For `Cc1ccc(N2C(=O)CC(Sc3nc4ccccc4s3)C2=O)cc1C` (centres undefined), the displacement was -14.4%.
With `C[n+]1cccc(C(=O)NCCOC(=O)c2ccccc2)c1` the displacement was 6.1%.
`O=C(Cc1ccccc1)Nc1ccc(Cl)c(-c2nc3ncccc3o2)c1` showed a displacement of 7.3%.
`O=C(Nc1ccc(C(=O)N2CCOCC2)cc1)c1ccccc1Cl` was tested, and the displacement was -2.5%.
`COc1ccc(OCC(=O)Nc2ccc3ccccc3c2)cc1` gave a displacement of -1%.
For `O=[N+]([O-])c1ccc(C2Nc3ccc([N+](=O)[O-])cc3C3C=CCC32)cc1` (centres undefined), the displacement was 5%.
`O=C(O)c1ccc(-c2c(Cl)cc([N+](=O)[O-])cc2Cl)o1` showed a displacement of 4.5%.
With `CCOC(=O)/C(C#N)=C\c1cccc([N+](=O)[O-])c1` the displacement was 13.5%.
Compound `Cc1cc(Nc2ccc(Br)cc2)nc2ccccc12` has a displacement of -0.3%.
`NCCCNc1ccccc1[N+](=O)[O-]` was tested, and the displacement was 10.2%.
For `O=C(CN(Cc1ccccc1)S(=O)(=O)c1ccccc1)Nc1ccc(Cl)cc1Cl`, the displacement was 9.3%.
`O=C(c1ccc(F)cc1)N1CCN(Cc2ccco2)CC1` was tested, and the displacement was 6.5%.
For `Cc1ccc2oc(-c3cc(NC(=O)COc4ccc(Cl)cc4C)ccc3O)nc2c1`, the displacement was 6.5%.
For `C=CCNC(=O)CN(c1cc(Cl)cc(Cl)c1)S(C)(=O)=O`, the displacement was -2%.
For `O=C(O)/C=C/C(=O)OCCCCCCOC(=O)/C=C/C(=O)OCCCCCCO`, the displacement was -3%.
Work on `N/C(=N\OC(=O)c1ccc(Cl)cc1)c1ccccn1` yielded a displacement of -11.4%.
`CCN(CC)C(=O)c1sc(N)c(C(=O)OC(C)C)c1C` showed a displacement of -2%.
`COc1ccc(OC)c(NC(=O)c2ccc(C)o2)c1` was tested, and the displacement was 2.8%.
`O=C(Nc1ccc2ccccc2c1)c1ccc(Cl)c(Cl)c1` gave a displacement of -6.1%.
Work on `COc1cc(Cc2ccc(NC(=O)C(F)(F)F)c(OC)c2)ccc1NC(=O)C(F)(F)F` yielded a displacement of 5.6%.
With `Cc1ccc(S(=O)(=O)C(CC(=O)c2ccccc2)c2cccs2)cc1` (centres undefined) the displacement was 8%.
`Cc1cc(Cl)ccc1OC(=O)/C=C/c1cccc([N+](=O)[O-])c1` gave a displacement of 5.6%.
Compound `O=C(Nc1ccc(Cl)cn1)c1cccc(F)c1` has a displacement of -0.7%.
With `CCCOc1ccc(C(=O)Nc2ccccc2-c2ccccc2)cc1` the displacement was 0%.
`COc1ccc(Cl)cc1NC(=O)C1CCCO1` (centres undefined) gave a displacement of -5.6%.
`CCOc1ccc(C(O)c2cnc(CC)n2C)cc1` (centres undefined) was tested, and the displacement was 1.9%.
`Clc1ccc(/C=C/C=Nc2ccc(-c3nc4ccccc4o3)cc2)cc1` showed a displacement of -1.7%.
In the case of `C#CCSc1nc2ccc([N+](=O)[O-])cc2s1`, the displacement is reported as 2%.
In the case of `COc1ccc(-c2csc(NC(C)=O)c2C(=O)O)cc1`, the displacement is reported as 11.7%.
`Cc1ccc(N2NC(=O)/C(=C/C=C/c3ccccc3)C2=O)cc1C` was tested, and the displacement was 8.4%.
`COc1cccc(NC(=O)C2C3/C=C\CCCCC32)c1` (centres undefined) showed a displacement of -4.6%.
For `COc1ccc(C2=CC=C(c3ccc(OC)cc3)C2)cc1`, the displacement was 13.6%.
In the case of `Cc1ccc(-c2cc(C(=O)N/N=C/c3c(Cl)cccc3Cl)[nH]n2)cc1`, the displacement is reported as -2.6%.
In the case of `Nc1nnc(-c2ccc(C(=O)O)cc2)s1`, the displacement is reported as 1.4%.
`COc1ccccc1OCCSc1nc2ccccc2n1CCC(=O)O` was tested, and the displacement was -9.8%.
In the case of `O=C1c2ccccc2C(=O)N1CCc1nc2ccccc2c(=O)n1-c1ccccn1`, the displacement is reported as 13.4%.
`COc1cc(/C=C2\SC(=S)NC2=O)ccc1Oc1ccc([N+](=O)[O-])cn1` was tested, and the displacement was 20.6%.
